Measurements as given in PubChem BioAssay AID887 (National Center for Advancing Translational Sciences (NCATS), 2007).
Among all 74,000 compounds or so, about 1,100 (1.5%) were called active. This list was built around the results that the source calls inconclusive (neither active nor inactive); the mix of calls is not that of the screen. The call rests on the fitted dose curve; in most records, active means well fitted inhibition curve with a large enough effect; inconclusive means small, poorly fitted or top-dose-only effect; inactive means no such curve, though single readings can be large or run the other way. No potency is given beside an inconclusive call; the fits are too rough.

Target: Polyunsaturated fatty acid lipoxygenase ALOX15 (Homo sapiens) (UniProt P16050)
Test: qHTS Assay for Inhibitors of 15-hLO (15-human lipoxygenase); further: nearly all actives have a fitted effect of over 55% in size
Details: purified 15hLO-1, xylenol orange hydroperoxide absorbance; activity change, negative = inhibition: at 57.1 µM (top of the series) unless noted
Text: Assay Overview: NIH Molecular Libraries Screening Centers Network [MLSCN] NIH Chemical Genomics Center [NCGC] MLSCN Grant: MH081283-01A1 PI Name: Holman, T.R., University of California, Santa Cruz Human lipoxygenase 15hLO-1 is a member of the closely related lipoxygenase family of enzymes which catalyze the site-specific oxidation of arachidonic acid to various hormone precursor molecules and as such is a candidate for drug development in a variety of disease areas, such as cancer and inflammation. Inhibition of 15hLO-1 activity was screened by utilizing arachidonic acid as a substrate. The extent of hydroperoxide product formation was measured by a secondary chromogenic reaction in which xylenol orange (XO, Sigma-Aldrich, cat. number 39,818-7) reacts with the ferric ions produced from the reaction between the hydroperoxide and ferrous ions. The Fe(III)-XO complex is characterized with red-shifted absorbance at 560 nm. A purified preparation of human 15hLO-1 was supplied by Professor Ted Holman, University of California, Santa Cruz.
Assay Protocol: Buffer: 25 mM Hepes pH 7.5, 0.01% Triton X-100. Reagents/Controls: Buffer in columns 3 and 4 as negative control (no enzyme). Substrate solution: 50 uM arachidonic acid (Sigma-Aldrich, St. Louis, MO) final concentration dispensed throughout the plate. Enzyme: 40 nM 15hLO-1 final concentration in columns 1, 2, 5-48. Column 1 is neutral (100% activity). Column 2 contained pin-transferred titration of NDGA (nordihidroguaiaretic acid, Sigma-Aldrich, N 5023, top concentration 10 mM in DMSO, then 1:2 dilution in duplicate). (Dilution factor: 23 nL into 4 uL.) Chromogenic detection reagent (divalent iron/xylenol orange, Fe-XO): 200 uM xylenol orange plus 300 uM ferrous ammonium sulfate prepared freshly in 50 mM sulfuric acid. Assay Steps: Three uL of enzyme were dispensed to 1536-well Greiner black clear bottom plates. Compounds and controls (23 nL) were transferred via Kalypsys PinTool. The plates were incubated for 15 min at room temperature, and then 1 uL of substrate solution was added to start the reaction. After room temperature incubation for 6 minutes, 4 uL of Fe-XO solution was added to each well followed by a short spin (1000 rpm, 15 sec) and the plates were then incubated for 30 min. The absorbance at 405 and 573 nm were measured using ViewLux (Perkin-Elmer) High-throughput CCD imager and absorbance protocol settings. The 573-to-405 absorbance ratio was used to compute reaction progress.
On the % scale 0 is the no-effect control and ±100 the full control effect; potency means the concentration at half of the fitted maximal effect; tags describe the fitted curve by direction and shape.

UniProt P16050, sequence (P16050 whole entry, looked up): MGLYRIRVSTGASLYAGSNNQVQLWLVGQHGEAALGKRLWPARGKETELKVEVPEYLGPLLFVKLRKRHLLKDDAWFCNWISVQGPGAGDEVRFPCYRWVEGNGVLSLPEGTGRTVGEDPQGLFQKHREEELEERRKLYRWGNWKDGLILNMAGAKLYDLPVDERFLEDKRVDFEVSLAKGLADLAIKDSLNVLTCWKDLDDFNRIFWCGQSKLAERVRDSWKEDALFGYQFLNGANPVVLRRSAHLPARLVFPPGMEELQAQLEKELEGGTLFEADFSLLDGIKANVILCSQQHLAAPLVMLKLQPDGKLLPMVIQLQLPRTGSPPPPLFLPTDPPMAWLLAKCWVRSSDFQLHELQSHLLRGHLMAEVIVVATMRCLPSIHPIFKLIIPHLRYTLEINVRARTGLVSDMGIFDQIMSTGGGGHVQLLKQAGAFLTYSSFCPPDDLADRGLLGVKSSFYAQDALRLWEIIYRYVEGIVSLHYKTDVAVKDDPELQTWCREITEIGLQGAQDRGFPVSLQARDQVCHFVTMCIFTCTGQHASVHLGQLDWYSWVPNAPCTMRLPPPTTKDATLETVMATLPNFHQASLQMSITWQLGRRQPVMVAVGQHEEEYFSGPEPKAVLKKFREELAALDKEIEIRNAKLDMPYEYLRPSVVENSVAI

**Q.** `COc1ccc(NS(=O)(=O)c2ccc3oc(Nc4ccc5c(c4)OCCO5)nc3c2)cc1` was tested. Which Potency did it give?
**A.** inconclusive [inhibitor, partial curve]

**Q.** Which Potency does the source give for `C[C@@H]1O[C@@H](O[C@@H]2[C@@H](O)[C@H](OCCc3ccc(O)c(O)c3)O[C@H](CO[C@@H]3O[C@H](CO)[C@@H](O)[C@H](O)[C@H]3O)[C@H]2OC(=O)/C=C/c2ccc(O)c(O)c2)[C@H](O)[C@H](O)[C@H]1O` here?
**A.** inconclusive [inhibitor, full curve]

**Q.** `Nc1ccc2oc(=O)c3ccccc3c2c1` was tested. Which “activity change, negative = inhibition” value did it give?
**A.** inactive: 14%

**Q.** `O=C(Nc1ccc(-c2nc3cccnc3s2)cc1)c1ccco1` was tested. Which Potency did it give?
**A.** active: 25.1 µM

**Q.** For `COc1ccc(NC(=O)c2nc3nc(C)cc(C(F)F)n3n2)cc1OC`, which Potency is on record?
**A.** inconclusive [inhibitor, single point]

**Q.** How did the Potency turn out when `O=C(Nc1ccc(OC(=O)c2cccs2)cc1)c1ccco1` was run?
**A.** inconclusive [inhibitor, partial curve]

**Q.** For `Cc1nc2nc(-c3ccccc3)cn2nc1C`, which “activity change, negative = inhibition” value is on record?
**A.** inactive: 2.79%

**Q.** Which Potency does the source give for `O=C(C1CC(c2ccccc2O)=NO1)N1CCCC1` (stereo unspecified) here?
**A.** active: 20 µM

**Q.** Which Potency does the source give for `COc1ccccc1NC(=O)CSc1nnc(Cc2cccn2C)n1-c1ccc(F)cc1` here?
**A.** inconclusive [inhibitor, full curve, poor fit]

**Q.** For `Cn1c(C(=O)N2CCN(Cc3ccccc3)CC2)cc2c(=O)n(C)c3ccccc3c21`, which Potency is on record?
**A.** inconclusive [inhibitor, full curve, poor fit]

**Q.** With `CN(C)C=NC(=O)/C(C#N)=C1\CCc2ccccc2N1` as the compound, how does the Potency read?
**A.** active: 7.94 µM

**Q.** With `O=C1OC2(c3ccc(O)cc3Oc3cc(O)ccc32)c2c1c(-c1ccccc1)c(-c1ccccc1)c(-c1ccccc1)c2-c1ccccc1` as the compound, how does the Potency read?
**A.** active: 1 µM

**Q.** With `Cc1ccc(C=NCc2ccncc2)c(O)c1` as the compound, how does the Potency read?
**A.** inconclusive [inhibitor, partial curve]

**Q.** With `COc1cc2c(cc1OC)-c1cc3nc4ccccc4nc3n1C(C)(C)C2` as the compound, how does the Potency read?
**A.** active: 12.6 µM

**Q.** `Oc1ccccc1Cn1c(-c2ccccc2O)nc2ccccc21` was tested. Which Potency did it give?
**A.** inconclusive [inhibitor, partial curve]

**Q.** How did the activity change, negative = inhibition turn out when `CC(=O)OC[C@@H]1O[C@H](CCO/N=C(\C)CCN2CCc3nc(-c4ccccc4)c(-c4ccccc4)cc3C2)C=C[C@@H]1OC(C)=O` was run?
**A.** inactive: -1.44% [at 11.4 µM]

**Q.** With `Cc1cccn2c(=O)c3cc(C(=O)NCC4CCCO4)n(C)c3nc12` (stereo unspecified) as the compound, how does the “activity change, negative = inhibition” value read?
**A.** inactive: 7.9%

**Q.** How did the Potency turn out when `CCN(CC)c1ncnc2c1cnn2C` was run?
**A.** inconclusive [inhibitor, full curve]

**Q.** For `COc1ccccc1CNc1ncnc2ccc(-c3ccc4c(c3)OCO4)cc12`, which Potency is on record?
**A.** inconclusive [inhibitor, single point]

**Q.** For `CCN1C(=O)/C(=C/N(C)c2ccccc2)OC1=S`, which Potency is on record?
**A.** active: 7.94 µM

**Q.** How did the activity change, negative = inhibition turn out when `COCCn1c(SCC(=O)Nc2nc(C)c(Cl)cc2Cl)nc2ccccc21` was run?
**A.** inconclusive: -39.7% [inhibitor]

**Q.** Which “activity change, negative = inhibition” value does the source give for `CCOC(=O)c1oc2ccc(S(=O)(=O)N3CCOCC3)cc2c1C` here?
**A.** inactive: 0.0227%

**Q.** For `Cc1ccsc1C1NC(=O)c2c(sc3c2CCN(C)C3)N1` (stereo unspecified), which Potency is on record?
**A.** inconclusive [inhibitor, partial curve]

**Q.** `CC1CCC2C(C)(C)C3CC12CC[C@]3(C)O` (stereo partly specified) was tested. Which Potency did it give?
**A.** inconclusive [inhibitor, single point]

**Q.** `CCn1c(N)c(C(=O)NCc2ccc3c(c2)OCO3)sc1=S` was tested. Which Potency did it give?
**A.** inconclusive [inhibitor, single point]

**Q.** Which “activity change, negative = inhibition” value does the source give for `CC(C)n1c(C(=O)OCC(=O)NCc2ccc3c(c2)OCO3)cc2sccc21` here?
**A.** inactive: -12.7%

**Q.** `O=C(Nc1nc2ccc(S(=O)(=O)N3CCCC3)cc2s1)c1cccs1` was tested. Which Potency did it give?
**A.** inconclusive [inhibitor, single point]

**Q.** For `NC(=O)c1c(N)sc2c1CCCCC2`, which Potency is on record?
**A.** inconclusive [inhibitor, partial curve]

**Q.** With `COc1cccc(-c2nc(NC3CC3)c3ccccc3n2)c1` as the compound, how does the Potency read?
**A.** active: 25.1 µM

**Q.** For `Cc1cc(C)n(-c2ncnc3sc4c(c23)CC(C)CC4)n1` (stereo unspecified), which activity change, negative = inhibition is on record?
**A.** inactive: 2.93% [at 11.4 µM]

**Q.** For `COc1ccc(C(=O)n2c(-c3ccco3)nc3ccccc32)cc1`, which Potency is on record?
**A.** inconclusive [inhibitor, single point]

**Q.** For `COc1cc(C)cc(OC)c1/C=C\C(=O)O`, which activity change, negative = inhibition is on record?
**A.** inactive: -4.58% [at 11.4 µM]

**Q.** How did the activity change, negative = inhibition turn out when `CC(C)(C)c1cc(Br)c(O)c(CN(Cc2cc(C(C)(C)C)cc(Br)c2O)C2CCCCC2)c1` was run?
**A.** inactive: 6.69% [at 11.4 µM]

**Q.** Which Potency does the source give for `Cc1noc(C)c1CSc1nnc2scc(-c3ccccc3)n12` here?
**A.** inconclusive [inhibitor, partial curve, poor fit]

**Q.** `CC(C)c1ccc(NC(=O)C2CC(=O)N=C(N)S2)cc1` (stereo unspecified) was tested. Which Potency did it give?
**A.** active: 25.1 µM

**Q.** For `CCNc1ncc2nc(-c3cn(C)c4ccccc34)c(=O)n(Cc3cccs3)c2n1`, which “activity change, negative = inhibition” value is on record?
**A.** inactive: 3.51%

**Q.** How did the Potency turn out when `COc1ccc(NC(=O)c2[nH]c(C)c(C(C)=O)c2C)cc1Cl` was run?
**A.** active: 31.6 µM

**Q.** How did the Potency turn out when `C=CCn1c2ccccc2c2nnc(SCCCn3c(=O)[nH]c4ccccc43)nc21` was run?
**A.** active: 15.8 µM

**Q.** With `COc1cccc(Cn2c(=O)c(-c3cn(C)c4ccccc34)nc3cnc(N4CCNCC4)nc32)c1` as the compound, how does the “activity change, negative = inhibition” value read?
**A.** inactive: -6.65%

**Q.** With `CCOc1ccc(C2C(C(=O)c3ccco3)=C(O)C(=O)N2Cc2cccnc2)cc1OC` (stereo unspecified) as the compound, how does the Potency read?
**A.** inconclusive [inhibitor, partial curve, poor fit]

**Q.** For `CCN(CC)c1nc2n(c(=O)n1)CCN2CC`, which Potency is on record?
**A.** inconclusive [inhibitor, partial curve]

**Q.** Which Potency does the source give for `COc1ccc(N2Cc3ccccc3C2)cc1Cl` here?
**A.** inconclusive [inhibitor, partial curve]

**Q.** For `COc1ccccc1NC(=O)C1=C(C)Nc2nnnn2C1c1cccc(Br)c1` (stereo unspecified), which Potency is on record?
**A.** inconclusive [inhibitor, single point]

**Q.** How did the “activity change, negative = inhibition” value turn out when `CC(NC(=O)NC1CCCCC1)C(c1cccs1)N1CCN(C)CC1` (stereo unspecified) was run?
**A.** inactive: -3.69%

**Q.** `CCN1CCN(c2cc(C)c3cc(NC(=O)Cc4ccc(OC)c(OC)c4)ccc3n2)CC1` was tested. Which Potency did it give?
**A.** inconclusive [inhibitor, partial curve]

**Q.** Which Potency does the source give for `Cc1cc(C(=O)CSc2nnc(Nc3ccccc3F)s2)c(C)n1CC1CCCO1` (stereo unspecified) here?
**A.** inconclusive [inhibitor, partial curve]
